# A collection of fitness landscapes (doi:10.1126/science.1257360)
# This is one part of the list.
# B1: PhoQ; a variant is named by its letters at X, in order, P23837 (parent)
# chain: MKKLLRLFFPLSLRVRFLLATAAVVLVLSLAYGMVALIGYSVSFDKTTFRLLRGESNLFYTLAKWENNKLHVELPENIDKQSPTMTLIYDENGQLLWAQRDVPWLMKMIQPDWLKSNGFHEIEADVNDTSLLLSGDHSIQQQLQEVREDDDDAEMTHSVAVNVYPATSRMPKLTIVVVDTIPVELKSSYMVWSWFIYVLSANLLLVIPLLWVAAWWSLRPIEALAKEVRELEEHNRELLNPATTRELTSLVRNLNRLLKSERERYDKYRTTLTDLTHSLKTPLXXLQXXLRSLRSEKMSVSDAEPVMLEQISRISQQIGYYLHRASMRGGTLLSRELHPVAPLLDNLTSALNKVYQRKGVNISLDISPEISFVGEQNDFVEVMGNVLDNACKYCLEFVEISARQTDEHLYIVVEDDGPGIPLSKREVIFDRGQRVDTLRPGQGVGLAVAREITEQYEGKIVAGESMLGGARMEVIFGRQHSAPKDE
# Variants of: B1
# Experiment: enrichment ratio after two sorts for PhoP signalling (ratio (wild type AVST 3.29)); higher = more functional
# Details: with PhoP (E. coli)
row,Variant,enrichment ratio
1,DKSL,≤ 0.25
2,DGIP,≤ 0.25
3,AMIG,3.62
4,SYAN,≤ 0.25
5,AQLM,19.4
6,WQDG,≤ 0.25
7,RTWM,≤ 0.25
8,LSSF,≤ 0.25
9,KHAW,≤ 0.25
10,GSCV,16.6
11,HSTE,≤ 0.25
12,FFIP,≤ 0.25
13,GPLY,≤ 0.25
14,YMAF,≤ 0.25
15,VFTH,≤ 0.25
16,KNFM,≤ 0.25
17,IDHC,≤ 0.25
18,MGLN,≤ 0.25
19,GKAF,≤ 0.25
20,RFEF,≤ 0.25
21,AIRI,≤ 0.25
22,VWGW,≤ 0.25
23,MMFF,≤ 0.25
24,SHTL,2.08

row,Variant,enrichment ratio
1,SDQA,≤ 0.25
2,MALV,5.46
3,QSWY,7.32
4,FVSI,≤ 0.25
5,VGEH,≤ 0.25
6,AATI,4.81
7,YCLW,≤ 0.25
8,FVWY,≤ 0.25
9,GFNH,≤ 0.25
10,QRHY,≤ 0.25
11,VLDV,≤ 0.25
12,HQAM,≤ 0.25
13,LWVL,≤ 0.25
14,MNDL,≤ 0.25
15,GYQK,≤ 0.25
16,PIHG,≤ 0.25
17,VHHC,≤ 0.25
18,DSFW,≤ 0.25
19,LSTC,≤ 0.25
20,FQMT,≤ 0.25
21,FEII,≤ 0.25
22,WFPC,≤ 0.25
23,AYLM,≤ 0.25
24,ADFC,≤ 0.25

row,Variant,enrichment ratio
1,AIQA,≤ 0.25
2,PKEV,≤ 0.25
3,IFNG,≤ 0.25
4,NMTQ,≤ 0.25
5,THMC,8.07
6,QSSY,3.21
7,GIWG,≤ 0.25
8,DLQD,≤ 0.25
9,QETT,≤ 0.25
10,INRT,≤ 0.25
11,WDRM,≤ 0.25
12,AFRE,≤ 0.25
13,RVII,≤ 0.25
14,EHHM,≤ 0.25
15,ETIM,≤ 0.25
16,PYFM,≤ 0.25
17,DAPK,≤ 0.25
18,HDLR,≤ 0.25
19,VSPN,≤ 0.25
20,SKFT,≤ 0.25
21,YMCI,≤ 0.25
22,DITT,≤ 0.25
23,ETSA,≤ 0.25
24,EGAL,≤ 0.25

row,Variant,enrichment ratio
1,NAQH,≤ 0.25
2,RHCR,≤ 0.25
3,FCWS,≤ 0.25
4,TWYQ,≤ 0.25
5,LDDD,≤ 0.25
6,NSFK,≤ 0.25
7,LTTY,≤ 0.25
8,WESM,≤ 0.25
9,MELV,18.1
10,WHHE,≤ 0.25
11,NSLK,≤ 0.25
12,NKVY,≤ 0.25
13,SAEC,≤ 0.25
14,EREW,≤ 0.25
15,LRPC,≤ 0.25
16,VRSP,≤ 0.25
17,LFFC,≤ 0.25
18,HSDF,≤ 0.25
19,GETG,≤ 0.25
20,VIKF,≤ 0.25
21,SMHF,≤ 0.25
22,DLDI,≤ 0.25
23,HGRQ,≤ 0.25
24,ALPY,≤ 0.25

row,Variant,enrichment ratio
1,YRYA,≤ 0.25
2,DLNG,≤ 0.25
3,HQLG,≤ 0.25
4,DYAY,≤ 0.25
5,LCYV,≤ 0.25
6,ECKA,≤ 0.25
7,QPRW,≤ 0.25
8,YFTH,≤ 0.25
9,QGAT,≤ 0.25
10,FEDY,≤ 0.25
11,CLFV,≤ 0.25
12,YKDF,≤ 0.25
13,NMCT,≤ 0.25
14,ARSA,≤ 0.25
15,QYWR,≤ 0.25
16,ADHN,≤ 0.25
17,LKKT,≤ 0.25
18,CMWS,≤ 0.25
19,VCVT,≤ 0.25
20,WFHD,≤ 0.25
21,DCRA,≤ 0.25
22,FGQW,≤ 0.25
23,NPDD,≤ 0.25
24,IKPA,≤ 0.25

row,Variant,enrichment ratio
1,HHPM,≤ 0.25
2,GFGR,≤ 0.25
3,PYNK,≤ 0.25
4,DDFS,≤ 0.25
5,DDWY,≤ 0.25
6,VARY,≤ 0.25
7,SSST,12.7
8,WSSH,≤ 0.25
9,WTRF,≤ 0.25
10,YLGS,≤ 0.25
11,NQND,≤ 0.25
12,QKMR,≤ 0.25
13,KHLW,≤ 0.25
14,ADLG,3.46
15,MHYC,≤ 0.25
16,GYVK,≤ 0.25
17,WMIS,≤ 0.25
18,IYHG,≤ 0.25
19,TKKV,≤ 0.25
20,IPMV,≤ 0.25
21,VRFS,≤ 0.25
22,ECCP,≤ 0.25
23,VKQG,≤ 0.25
24,IFEK,≤ 0.25

row,Variant,enrichment ratio
1,QQLW,≤ 0.25
2,MFRV,≤ 0.25
3,TLEF,0.459
4,KRHH,≤ 0.25
5,QVWV,≤ 0.25
6,VWPM,≤ 0.25
7,TKMW,≤ 0.25
8,ALAA,≤ 0.25
9,DEWS,≤ 0.25
10,FKEW,≤ 0.25
11,CMTL,≤ 0.25
12,PIYV,≤ 0.25
13,MIIY,≤ 0.25
14,SAKK,≤ 0.25
15,LAGH,≤ 0.25
16,RDIG,≤ 0.25
17,RLDP,≤ 0.25
18,TWNY,≤ 0.25
19,KVEL,≤ 0.25
20,PKST,≤ 0.25
21,TKQK,≤ 0.25
22,YYFF,≤ 0.25
23,IECQ,6.16
24,HYPG,≤ 0.25

row,Variant,enrichment ratio
1,ETHY,≤ 0.25
2,FASN,≤ 0.25
3,TQPH,≤ 0.25
4,KTHC,≤ 0.25
5,RWCH,≤ 0.25
6,QYSI,≤ 0.25
7,LMPR,≤ 0.25
8,EKCF,≤ 0.25
9,ERAL,≤ 0.25
10,DFLW,≤ 0.25
11,YKWI,≤ 0.25
12,VTYN,≤ 0.25
13,MDQV,≤ 0.25
14,HQPD,≤ 0.25
15,YPWH,≤ 0.25
16,AAVE,≤ 0.25
17,WCCV,≤ 0.25
18,WTLD,≤ 0.25
19,GATI,≤ 0.25
20,ISYR,≤ 0.25
21,VFRS,≤ 0.25
22,AFTH,≤ 0.25
23,NVPQ,≤ 0.25
24,EGYQ,≤ 0.25

row,Variant,enrichment ratio
1,IFPV,≤ 0.25
2,TDNN,33.6
3,HNAQ,≤ 0.25
4,GSQM,≤ 0.25
5,TPID,≤ 0.25
6,ESFM,≤ 0.25
7,MMRM,≤ 0.25
8,FCEW,≤ 0.25
9,LPVN,≤ 0.25
10,DRVR,≤ 0.25
11,DSVL,≤ 0.25
12,TCFC,≤ 0.25
13,NHRS,≤ 0.25
14,NCGQ,≤ 0.25
15,QGCY,≤ 0.25
16,TPDN,≤ 0.25
17,PRML,≤ 0.25
18,NTSI,≤ 0.25
19,GMCS,6.22
20,WKYG,≤ 0.25
21,QCGE,7.66
22,VFFH,≤ 0.25
23,THYL,1.6
24,EVVQ,≤ 0.25

row,Variant,enrichment ratio
1,QNCQ,≤ 0.25
2,FRNA,≤ 0.25
3,DVPG,≤ 0.25
4,MLLN,≤ 0.25
5,YEYK,≤ 0.25
6,IVKN,≤ 0.25
7,PTEF,≤ 0.25
8,MNMT,≤ 0.25
9,ACCW,5.23
10,PADM,≤ 0.25
11,YDSS,≤ 0.25
12,HSYK,≤ 0.25
13,YTRC,≤ 0.25
14,SMEN,≤ 0.25
15,RSIV,≤ 0.25
16,AMFV,≤ 0.25
17,NCPQ,≤ 0.25
18,TAYY,7.33
19,PYCE,≤ 0.25
20,YELC,5.36
21,FTNF,≤ 0.25
22,DNYA,≤ 0.25
23,VRRF,≤ 0.25
24,KPEP,≤ 0.25

row,Variant,enrichment ratio
1,METY,3.22
2,WNHM,≤ 0.25
3,RYIN,≤ 0.25
4,DWCY,≤ 0.25
5,IQTF,≤ 0.25
6,TDSM,8.32
7,VSTN,0.32
8,EAWT,≤ 0.25
9,LNCQ,≤ 0.25
10,GDDK,≤ 0.25
11,TCLI,0.877
12,WFYQ,≤ 0.25
13,NILL,0.938
14,DQPY,0.637
15,HEQC,≤ 0.25
16,QWAS,≤ 0.25
17,DFTS,≤ 0.25
18,THKH,≤ 0.25
19,RELH,≤ 0.25
20,EDHE,≤ 0.25
21,ILNS,≤ 0.25
22,TIGT,8.46
23,LAVN,≤ 0.25
24,QFMW,≤ 0.25

row,Variant,enrichment ratio
1,PTNV,≤ 0.25
2,NGAH,≤ 0.25
3,NWRD,≤ 0.25
4,TPAK,≤ 0.25
5,HFFS,≤ 0.25
6,LHCF,≤ 0.25
7,KYRH,≤ 0.25
8,DARP,≤ 0.25
9,TGWD,≤ 0.25
10,HWSR,≤ 0.25
11,PCVA,≤ 0.25
12,FINA,≤ 0.25
13,LSDC,≤ 0.25
14,RKGP,≤ 0.25
15,ISRC,≤ 0.25
16,FLDC,≤ 0.25
17,ACMR,1.61
18,PVTN,≤ 0.25
19,GFER,≤ 0.25
20,MQVI,≤ 0.25
21,HGAH,≤ 0.25
22,FQMY,≤ 0.25
23,PIEN,≤ 0.25
24,QFRT,≤ 0.25

row,Variant,enrichment ratio
1,HDFA,≤ 0.25
2,IQTQ,≤ 0.25
3,RQMG,≤ 0.25
4,FNTT,≤ 0.25
5,TMLM,6.66
6,APKM,≤ 0.25
7,SSQS,≤ 0.25
8,PKQQ,≤ 0.25
9,INVP,≤ 0.25
10,MCFG,3.32
11,YELM,13.8
12,EFRN,≤ 0.25
13,PTCY,≤ 0.25
14,TGYS,1.45
15,LTFR,≤ 0.25
16,WRGS,≤ 0.25
17,CLLW,≤ 0.25
18,MEYI,11
